Whole data set: some 81,000 sequences, median “one-hybrid fitness for binding NBS DNA” near -0.1, cut for the highest 2% near 0.36. This is one part of the list.
B1: Caulobacter ParB omega fusion; a variant is named by its letters at X, in order, B8GW30 (parent)
chain: MESVVVGEPGMSEGRRGLGRGLSALLGEVDAAPAQAPGEQLGGSREAPIEILQRNPDQPRRTFREEDLEDLSNSIREKGVLQPILVRPSPDTAGEYQIVAGERAWRAAQRAGLKTVPIMVRELDDLAVLEIGIIENVQRADLNVLEEALSYKVLMEKFERTQENIAQTIGKSXSHVANXMRLLXLPDEVQSYLVSGELTAXHARAIAAAADPVALAKQIIEGGLSVRETEALARKAPNLSAGKSKGGRPPRVKDTDTQALESDLSSVLGLDVSIDHRGSTGTLTITYATLEQLDDLCNRLTRGI

Variants of: B1
Experiment: one-hybrid fitness for binding NBS DNA (the Noc-binding site; scaled: cognate 1, non-cognate 0); higher = stronger binding
Settings: with NBS DNA site
How it was run: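 Values were rescaled so that cognate is 1 and non-cognate is 0. Each is a fitness, the log change in a variant's read ratio to wild type from Illumina reads of plasmids before and after selection, with three replicate libraries pooled and variants under 10 reads dropped. Selection of the Caulobacter ParB libraries, four specificity codons randomised, used E. coli USO with a HIS3 reporter, site 19 bp from the promoter, on M9-minus-histidine with 0.1 mM IPTG and 5 mM 3-AT for 48 hours at 37°C.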

Question: How did the “one-hybrid fitness for binding NBS DNA” value turn out when SGVR was run?
Answer: Its value is ≤ 0.2.

Question: With TCAK as the variant, how does the “one-hybrid fitness for binding NBS DNA” value read?
Answer: Its value is ≤ 0.2.

Question: Which “one-hybrid fitness for binding NBS DNA” value does the source give for GRQQ here?
Answer: The value was ≤ 0.2.

Question: For MVLQ, which “one-hybrid fitness for binding NBS DNA” value is on record?
Answer: The value was ≤ 0.2.

Question: How did the “one-hybrid fitness for binding NBS DNA” value turn out when YRQG was run?
Answer: The value was ≤ 0.2.

Question: For LMRC, which “one-hybrid fitness for binding NBS DNA” value is on record?
Answer: Its value is ≤ 0.2.

Question: For LQIC, which “one-hybrid fitness for binding NBS DNA” value is on record?
Answer: Its value is ≤ 0.2.

Question: PAHP was tested. Which “one-hybrid fitness for binding NBS DNA” value did it give?
Answer: Its value is ≤ 0.2.

Question: For NPNT, which “one-hybrid fitness for binding NBS DNA” value is on record?
Answer: Its value is ≤ 0.2.

Question: How did the “one-hybrid fitness for binding NBS DNA” value turn out when SGMV was run?
Answer: Its value is ≤ 0.2.

Question: For TCCS, which “one-hybrid fitness for binding NBS DNA” value is on record?
Answer: Its value is ≤ 0.2.

Question: Which “one-hybrid fitness for binding NBS DNA” value does the source give for AKTS here?
Answer: Its value is ≤ 0.2.

Question: For YLSN, which “one-hybrid fitness for binding NBS DNA” value is on record?
Answer: The value was ≤ 0.2.

Question: With ARSR as the variant, how does the “one-hybrid fitness for binding NBS DNA” value read?
Answer: The value was ≤ 0.2.

Question: For FDHP, which “one-hybrid fitness for binding NBS DNA” value is on record?
Answer: The value was ≤ 0.2.

Question: With ALDF as the variant, how does the “one-hybrid fitness for binding NBS DNA” value read?
Answer: Its value is ≤ 0.2.

Question: How did the “one-hybrid fitness for binding NBS DNA” value turn out when LNPV was run?
Answer: Its value is ≤ 0.2.

Question: Which “one-hybrid fitness for binding NBS DNA” value does the source give for VIST here?
Answer: Its value is ≤ 0.2.

Question: With AADG as the variant, how does the “one-hybrid fitness for binding NBS DNA” value read?
Answer: Its value is ≤ 0.2.

Question: Which “one-hybrid fitness for binding NBS DNA” value does the source give for HHNC here?
Answer: Its value is ≤ 0.2.

Question: With YLPG as the variant, how does the “one-hybrid fitness for binding NBS DNA” value read?
Answer: The value was ≤ 0.2.

Question: With LFIC as the variant, how does the “one-hybrid fitness for binding NBS DNA” value read?
Answer: Its value is ≤ 0.2.

Question: With QDVG as the variant, how does the “one-hybrid fitness for binding NBS DNA” value read?
Answer: Its value is ≤ 0.2.

Question: Which “one-hybrid fitness for binding NBS DNA” value does the source give for WKSC here?
Answer: Its value is ≤ 0.2.

Question: For EASN, which “one-hybrid fitness for binding NBS DNA” value is on record?
Answer: Its value is ≤ 0.2.

Question: How did the “one-hybrid fitness for binding NBS DNA” value turn out when IWAL was run?
Answer: The value was ≤ 0.2.

Question: With MSLD as the variant, how does the “one-hybrid fitness for binding NBS DNA” value read?
Answer: Its value is ≤ 0.2.

Question: Which “one-hybrid fitness for binding NBS DNA” value does the source give for QFTW here?
Answer: The value was ≤ 0.2.

Question: INIR was tested. Which “one-hybrid fitness for binding NBS DNA” value did it give?
Answer: Its value is ≤ 0.2.

Question: Which “one-hybrid fitness for binding NBS DNA” value does the source give for GDVS here?
Answer: The value was ≤ 0.2.

Question: How did the “one-hybrid fitness for binding NBS DNA” value turn out when APQS was run?
Answer: Its value is ≤ 0.2.

Question: DHDR was tested. Which “one-hybrid fitness for binding NBS DNA” value did it give?
Answer: The value was ≤ 0.2.

Question: With RAGD as the variant, how does the “one-hybrid fitness for binding NBS DNA” value read?
Answer: The value was ≤ 0.2.

Question: For DLRL, which “one-hybrid fitness for binding NBS DNA” value is on record?
Answer: The value was ≤ 0.2.

Question: How did the “one-hybrid fitness for binding NBS DNA” value turn out when LVAQ was run?
Answer: The value was ≤ 0.2.

Question: NYRT was tested. Which “one-hybrid fitness for binding NBS DNA” value did it give?
Answer: Its value is ≤ 0.2.

Question: Which “one-hybrid fitness for binding NBS DNA” value does the source give for EYTF here?
Answer: The value was ≤ 0.2.

Question: For KLAA, which “one-hybrid fitness for binding NBS DNA” value is on record?
Answer: The value was ≤ 0.2.

Question: How did the “one-hybrid fitness for binding NBS DNA” value turn out when PFPG was run?
Answer: The value was ≤ 0.2.

Question: With MYET as the variant, how does the “one-hybrid fitness for binding NBS DNA” value read?
Answer: The value was ≤ 0.2.

Question: Which “one-hybrid fitness for binding NBS DNA” value does the source give for NADY here?
Answer: Its value is ≤ 0.2.

Question: With EQKC as the variant, how does the “one-hybrid fitness for binding NBS DNA” value read?
Answer: Its value is ≤ 0.2.

Question: For RIGI, which “one-hybrid fitness for binding NBS DNA” value is on record?
Answer: The value was ≤ 0.2.

Question: MAYY was tested. Which “one-hybrid fitness for binding NBS DNA” value did it give?
Answer: The value was ≤ 0.2.

Question: RIPI was tested. Which “one-hybrid fitness for binding NBS DNA” value did it give?
Answer: Its value is ≤ 0.2.

Question: AQQE was tested. Which “one-hybrid fitness for binding NBS DNA” value did it give?
Answer: The value was ≤ 0.2.

Question: Which “one-hybrid fitness for binding NBS DNA” value does the source give for PSRY here?
Answer: Its value is ≤ 0.2.

Question: Which “one-hybrid fitness for binding NBS DNA” value does the source give for QASK here?
Answer: Its value is ≤ 0.2.

Question: Which “one-hybrid fitness for binding NBS DNA” value does the source give for LSGS here?
Answer: Its value is ≤ 0.2.

Question: Which “one-hybrid fitness for binding NBS DNA” value does the source give for IMKA here?
Answer: Its value is ≤ 0.2.

Question: For CDSV, which “one-hybrid fitness for binding NBS DNA” value is on record?
Answer: Its value is ≤ 0.2.

Question: For NKHT, which “one-hybrid fitness for binding NBS DNA” value is on record?
Answer: The value was ≤ 0.2.

Question: How did the “one-hybrid fitness for binding NBS DNA” value turn out when VNNG was run?
Answer: Its value is ≤ 0.2.

Question: Which “one-hybrid fitness for binding NBS DNA” value does the source give for PICV here?
Answer: Its value is ≤ 0.2.

Question: VPIS was tested. Which “one-hybrid fitness for binding NBS DNA” value did it give?
Answer: Its value is ≤ 0.2.

Question: For LFLV, which “one-hybrid fitness for binding NBS DNA” value is on record?
Answer: Its value is ≤ 0.2.

Question: Which “one-hybrid fitness for binding NBS DNA” value does the source give for NVRI here?
Answer: The value was ≤ 0.2.

Question: With LLSR as the variant, how does the “one-hybrid fitness for binding NBS DNA” value read?
Answer: The value was ≤ 0.2.

Question: With NSWR as the variant, how does the “one-hybrid fitness for binding NBS DNA” value read?
Answer: Its value is ≤ 0.2.

Question: QVDL was tested. Which “one-hybrid fitness for binding NBS DNA” value did it give?
Answer: The value was ≤ 0.2.

Question: For SYNW, which “one-hybrid fitness for binding NBS DNA” value is on record?
Answer: Its value is ≤ 0.2.

Question: Which “one-hybrid fitness for binding NBS DNA” value does the source give for TQFC here?
Answer: The value was ≤ 0.2.

Question: With PKWS as the variant, how does the “one-hybrid fitness for binding NBS DNA” value read?
Answer: Its value is ≤ 0.2.

Question: For QVVF, which “one-hybrid fitness for binding NBS DNA” value is on record?
Answer: The value was ≤ 0.2.

Question: For SKNI, which “one-hybrid fitness for binding NBS DNA” value is on record?
Answer: The value was ≤ 0.2.

Question: CSHF was tested. Which “one-hybrid fitness for binding NBS DNA” value did it give?
Answer: The value was ≤ 0.2.

Question: With KTRC as the variant, how does the “one-hybrid fitness for binding NBS DNA” value read?
Answer: Its value is ≤ 0.2.

Question: How did the “one-hybrid fitness for binding NBS DNA” value turn out when YRPN was run?
Answer: Its value is ≤ 0.2.

Question: For YYAV, which “one-hybrid fitness for binding NBS DNA” value is on record?
Answer: The value was ≤ 0.2.

Question: With PNIW as the variant, how does the “one-hybrid fitness for binding NBS DNA” value read?
Answer: Its value is ≤ 0.2.

Question: With ALRE as the variant, how does the “one-hybrid fitness for binding NBS DNA” value read?
Answer: Its value is 0.248.

Question: How did the “one-hybrid fitness for binding NBS DNA” value turn out when ERVA was run?
Answer: The value was ≤ 0.2.

Question: With VDQT as the variant, how does the “one-hybrid fitness for binding NBS DNA” value read?
Answer: The value was ≤ 0.2.

Question: How did the “one-hybrid fitness for binding NBS DNA” value turn out when KKHR was run?
Answer: The value was 0.258.

Question: With PLPH as the variant, how does the “one-hybrid fitness for binding NBS DNA” value read?
Answer: The value was ≤ 0.2.

Question: With SSDM as the variant, how does the “one-hybrid fitness for binding NBS DNA” value read?
Answer: Its value is ≤ 0.2.

Question: For DYDR, which “one-hybrid fitness for binding NBS DNA” value is on record?
Answer: The value was ≤ 0.2.

Reference: a collection of fitness landscapes (doi:10.1016/j.celrep.2020.107928)
